The target in assay [1] is T1, Fra-1 (human (endogenous in SH-SY5Y)) (UniProt P15407).
T1 sequence: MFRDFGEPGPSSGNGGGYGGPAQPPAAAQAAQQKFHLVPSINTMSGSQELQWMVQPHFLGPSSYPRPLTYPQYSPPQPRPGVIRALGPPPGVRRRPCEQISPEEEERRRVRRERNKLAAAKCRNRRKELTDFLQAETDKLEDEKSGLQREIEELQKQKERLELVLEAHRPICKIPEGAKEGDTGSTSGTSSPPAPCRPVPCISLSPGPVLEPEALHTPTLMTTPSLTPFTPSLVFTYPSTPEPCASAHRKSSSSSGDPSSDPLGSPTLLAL
In words: native gel or EMSA; 32P-labelled AP-1 (TRE) probe with nuclear extracts of SH-SY5Y; 1 ug c-Jun or Fra-1 antibody preincubated with the extract at 4 C for one hour; 4% polyacrylamide gel.

Assay [2] deals with T1, Fra-1 (human (endogenous in SH-SY5Y)). Kind of assay: co-IP; SH-SY5Y cell extracts immunoprecipitated with 2 ug antibody against c-Fos, FosB, Fra-1, Fra2, c-Jun, JunB, JunD, ATF2 or normal IgG, agarose beads with protein A plus G; WB with c-Jun or Fra-1 monoclonal antibody.
Assay [3] deals with T2, JunD (human (endogenous in SH-SY5Y)) (UniProt P17535).
T2 sequence: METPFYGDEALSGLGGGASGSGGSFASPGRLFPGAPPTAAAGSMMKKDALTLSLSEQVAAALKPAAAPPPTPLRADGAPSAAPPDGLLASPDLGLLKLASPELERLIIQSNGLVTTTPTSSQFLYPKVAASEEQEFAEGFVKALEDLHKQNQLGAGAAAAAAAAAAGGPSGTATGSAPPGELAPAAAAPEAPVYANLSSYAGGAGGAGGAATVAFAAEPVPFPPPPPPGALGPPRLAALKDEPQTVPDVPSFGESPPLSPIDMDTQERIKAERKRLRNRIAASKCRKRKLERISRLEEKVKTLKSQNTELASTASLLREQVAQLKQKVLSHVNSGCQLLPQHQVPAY
The description is as above.

The target in assay [4] is T1, Fra-1 (human (endogenous in SH-SY5Y)). In words: co-IP; lysates of SK-N-SH, SK-N-BE(2) and KP-N-NS cells (Supplementary Data S2; Figure 2).
The target in assay [5] is T3, FosB (human (endogenous in SH-SY5Y)) (UniProt P53539).
T3 sequence: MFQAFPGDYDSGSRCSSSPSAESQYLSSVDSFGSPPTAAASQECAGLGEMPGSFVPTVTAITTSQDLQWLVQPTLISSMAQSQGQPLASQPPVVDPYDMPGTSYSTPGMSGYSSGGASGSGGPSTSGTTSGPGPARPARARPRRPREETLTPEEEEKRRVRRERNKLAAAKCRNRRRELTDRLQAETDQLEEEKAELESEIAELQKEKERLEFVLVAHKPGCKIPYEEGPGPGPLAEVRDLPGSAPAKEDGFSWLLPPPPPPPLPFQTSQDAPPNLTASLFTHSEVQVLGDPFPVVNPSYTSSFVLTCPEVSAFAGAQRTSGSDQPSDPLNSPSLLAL
In words: co-IP; SH-SY5Y cell extracts immunoprecipitated with 2 ug antibody against c-Fos, FosB, Fra-1, Fra2, c-Jun, JunB, JunD, ATF2 or normal IgG, agarose beads with protein A plus G; WB with c-Jun or Fra-1 monoclonal antibody.

Assay [6] addresses c-Jun (human (endogenous in SH-SY5Y)) (UniProt P05412). The assay is described as above.
Assay [7] deals with T4, Fra2 (human (endogenous in SH-SY5Y)) (UniProt P15408).
T4 sequence: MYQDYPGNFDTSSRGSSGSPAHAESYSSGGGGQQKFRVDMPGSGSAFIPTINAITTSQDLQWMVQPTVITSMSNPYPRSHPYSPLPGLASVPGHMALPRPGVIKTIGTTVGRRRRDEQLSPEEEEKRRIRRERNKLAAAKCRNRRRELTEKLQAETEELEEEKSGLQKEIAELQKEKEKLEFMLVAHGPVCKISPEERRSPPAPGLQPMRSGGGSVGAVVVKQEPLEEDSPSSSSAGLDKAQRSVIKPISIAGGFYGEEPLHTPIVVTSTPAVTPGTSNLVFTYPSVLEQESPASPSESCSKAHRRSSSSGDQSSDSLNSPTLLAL
The assay is described as above.

The target in assay [8] is T5, ATF2 (human (endogenous in SH-SY5Y)) (UniProt P15336).
T5 sequence: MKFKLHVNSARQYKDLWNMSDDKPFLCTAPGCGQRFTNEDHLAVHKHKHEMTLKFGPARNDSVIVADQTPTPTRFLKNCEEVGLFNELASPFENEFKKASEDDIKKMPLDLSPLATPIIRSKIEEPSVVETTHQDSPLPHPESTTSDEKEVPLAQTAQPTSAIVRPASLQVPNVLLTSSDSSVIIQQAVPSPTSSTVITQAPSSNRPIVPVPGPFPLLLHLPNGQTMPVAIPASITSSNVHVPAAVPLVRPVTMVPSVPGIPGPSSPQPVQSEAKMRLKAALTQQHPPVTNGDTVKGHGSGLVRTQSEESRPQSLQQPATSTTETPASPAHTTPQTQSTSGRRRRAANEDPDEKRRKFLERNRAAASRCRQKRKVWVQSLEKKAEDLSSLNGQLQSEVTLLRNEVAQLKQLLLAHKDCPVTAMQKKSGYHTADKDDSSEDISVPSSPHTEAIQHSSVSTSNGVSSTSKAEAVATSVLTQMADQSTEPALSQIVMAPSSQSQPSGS
The assay is described as above.

Assay [9] concerns the target T6, c-Fos (human (endogenous in SH-SY5Y)), P01100.
T6 chain: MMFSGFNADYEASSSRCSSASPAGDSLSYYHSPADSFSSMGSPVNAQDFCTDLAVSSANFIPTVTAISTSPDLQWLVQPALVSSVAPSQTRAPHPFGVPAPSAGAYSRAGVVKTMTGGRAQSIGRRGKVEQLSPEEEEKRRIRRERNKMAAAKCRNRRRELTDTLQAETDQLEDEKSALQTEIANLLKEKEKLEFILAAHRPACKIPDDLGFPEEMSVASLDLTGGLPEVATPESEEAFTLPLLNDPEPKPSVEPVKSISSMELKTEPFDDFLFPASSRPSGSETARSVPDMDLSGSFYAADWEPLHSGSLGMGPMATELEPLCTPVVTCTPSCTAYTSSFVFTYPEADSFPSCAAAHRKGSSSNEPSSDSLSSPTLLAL
Described as above. To be noted: remark: other sources report otherwise.

The target of assay [10] is T7, JunD (human (endogenous in SH-SY5Y)), P17535.
T7 chain: T2 sequence
The assay is described as above. To be noted: remark: other sources report otherwise.

The target in assay [11] is T8, JunB (human (endogenous in SH-SY5Y)), P17275.
T8 chain: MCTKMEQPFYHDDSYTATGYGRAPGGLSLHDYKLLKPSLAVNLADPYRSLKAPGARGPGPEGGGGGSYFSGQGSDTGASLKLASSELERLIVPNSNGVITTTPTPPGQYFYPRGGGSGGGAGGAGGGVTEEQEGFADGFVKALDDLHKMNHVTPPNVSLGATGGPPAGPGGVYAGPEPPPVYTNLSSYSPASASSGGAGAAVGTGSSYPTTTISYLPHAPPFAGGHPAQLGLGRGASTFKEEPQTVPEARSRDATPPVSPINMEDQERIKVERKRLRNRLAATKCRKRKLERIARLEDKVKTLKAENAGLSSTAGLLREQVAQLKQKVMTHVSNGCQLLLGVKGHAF
Described as above. To be noted: remark: other sources report otherwise.

Assay [12] deals with T9, FosB (human (endogenous in SH-SY5Y)), P53539.
T9 chain: T3 sequence
The description is as above. As to conditions: remark: other sources report otherwise.

Assay [13] concerns the target T10, ATF2 (human (endogenous in SH-SY5Y)), P15336.
T10 chain: T5 sequence
Described as above. To be noted: remark: other sources report otherwise.

Assay [14] concerns the target T11, Fra2 (human (endogenous in SH-SY5Y)), P15408.
T11 chain: T4 sequence
The description is as above. As to conditions: remark: other sources report otherwise.

Results are given in words; binding and its absence hold for the method and conditions named. For part of these data: Binding seen in cells or lysates may run through a third protein. Some entries that bind do so weakly or less than the wild type.

On to c-Jun (from UniProt P05412 1-331), for which the binding result is on record as “binds” in assay [1], “binds” in [2], “no binding” in assay [3] and “binds” in assay [4].

B1: Fra-1 (protein, UniProt P15407 1-271)
chain: T1 sequence
Consider B1, for which the binding entry is listed as “no binding” in assay [5], “binds” in assay [6], “no binding” in assay [7] and “no binding” in [8].

B2: Fra-1, P15407 1-271 (protein)
chain: T1 sequence
Consider B2, for which the binding result in assay [9], in assay [10] and in assay [11] was “no binding” in each case.

B3: c-Jun, P05412 1-331 (protein)
chain: MTAKMETTFYDDALNASFLPSESGPYGYSNPKILKQSMTLNLADPVGSLKPHLRAKNSDLLTSPDVGLLKLASPELERLIIQSSNGHITTTPTPTQFLCPKNVTDEQEGFAEGFVRALAELHSQNTLPSVTSAAQPVNGAGMVAPAVASVAGGSGSGGFSASLHSEPPVYANLSNFNPGALSSGGGAPSYGAAGLAFPAQPQQQQQPPHHLPQQMPVQHPRLQALKEEPQTVPEMPGETPPLSPIDMESQERIKAERKRMRNRIAASKCRKRKLERIARLEEKVKTLKAQNSELASTANMLREQVAQLKQKVMNHVNSGCQLMLTQQLQTF
In the case of B3, the binding result in [11], in [12], in assay [13] and in assay [14] was “no binding” throughout.
